# Reference: a collection of fitness landscapes (doi:10.1126/science.1257360)
# The list shows a part of the results.
# B1: PhoQ; a variant is named by its letters at X, in order, P23837 (parent)
# chain: MKKLLRLFFPLSLRVRFLLATAAVVLVLSLAYGMVALIGYSVSFDKTTFRLLRGESNLFYTLAKWENNKLHVELPENIDKQSPTMTLIYDENGQLLWAQRDVPWLMKMIQPDWLKSNGFHEIEADVNDTSLLLSGDHSIQQQLQEVREDDDDAEMTHSVAVNVYPATSRMPKLTIVVVDTIPVELKSSYMVWSWFIYVLSANLLLVIPLLWVAAWWSLRPIEALAKEVRELEEHNRELLNPATTRELTSLVRNLNRLLKSERERYDKYRTTLTDLTHSLKTPLXXLQXXLRSLRSEKMSVSDAEPVMLEQISRISQQIGYYLHRASMRGGTLLSRELHPVAPLLDNLTSALNKVYQRKGVNISLDISPEISFVGEQNDFVEVMGNVLDNACKYCLEFVEISARQTDEHLYIVVEDDGPGIPLSKREVIFDRGQRVDTLRPGQGVGLAVAREITEQYEGKIVAGESMLGGARMEVIFGRQHSAPKDE
# Variants of: B1
# Experiment: enrichment ratio after two sorts for PhoP signalling (ratio (wild type AVST 3.29)); higher = more functional
# Details: with PhoP (E. coli)
row,Variant,enrichment ratio
1,VPSN,≤ 0.25
2,GQIW,≤ 0.25
3,PLED,≤ 0.25
4,DGGE,≤ 0.25
5,MELR,≤ 0.25
6,YPRY,≤ 0.25
7,MIWN,≤ 0.25
8,YPIA,≤ 0.25
9,VEVD,≤ 0.25
10,VTDL,≤ 0.25
11,IYRH,≤ 0.25
12,HEIF,≤ 0.25
13,MSQT,≤ 0.25
14,QSQF,≤ 0.25
15,QPAW,≤ 0.25
16,DFVY,≤ 0.25
17,ENPH,≤ 0.25
18,FHWV,≤ 0.25
19,NQFF,≤ 0.25
20,SAEM,≤ 0.25
21,FCNA,≤ 0.25

row,Variant,enrichment ratio
1,LYYA,≤ 0.25
2,TSLV,14.6
3,SDAK,≤ 0.25
4,HFKY,≤ 0.25
5,PEQS,≤ 0.25
6,DPSV,≤ 0.25
7,HGKI,≤ 0.25
8,LGAG,≤ 0.25
9,VDVE,≤ 0.25
10,LRCS,≤ 0.25
11,NQNR,≤ 0.25
12,PWKD,≤ 0.25
13,NIAL,1.57
14,QRFN,≤ 0.25
15,ALSC,4.98
16,IVRM,≤ 0.25
17,NEEC,≤ 0.25
18,LARH,≤ 0.25
19,KKAV,≤ 0.25
20,FWAC,≤ 0.25
21,PCWD,≤ 0.25

row,Variant,enrichment ratio
1,QMTF,≤ 0.25
2,LTII,≤ 0.25
3,NPIH,≤ 0.25
4,RVLS,≤ 0.25
5,QYCI,≤ 0.25
6,MFPR,≤ 0.25
7,TFRW,≤ 0.25
8,KHKS,≤ 0.25
9,NFSW,≤ 0.25
10,NDQA,≤ 0.25
11,HTDS,≤ 0.25
12,ITHR,≤ 0.25
13,LTTW,≤ 0.25
14,VRIL,≤ 0.25
15,HDTK,≤ 0.25
16,EVFM,≤ 0.25
17,LMIR,≤ 0.25
18,RGWC,≤ 0.25
19,KMKV,≤ 0.25
20,YESY,≤ 0.25
21,SPTV,≤ 0.25

row,Variant,enrichment ratio
1,ASVP,≤ 0.25
2,REDR,≤ 0.25
3,PWPG,≤ 0.25
4,VPTR,≤ 0.25
5,HIDF,≤ 0.25
6,NLTA,≤ 0.25
7,IGPA,≤ 0.25
8,KQML,≤ 0.25
9,KAMT,≤ 0.25
10,WMRK,≤ 0.25
11,PMED,≤ 0.25
12,VCCE,≤ 0.25
13,ELNM,≤ 0.25
14,RSEV,≤ 0.25
15,GNDY,≤ 0.25
16,PFTE,≤ 0.25
17,QMVS,≤ 0.25
18,DDSR,≤ 0.25
19,FWVI,≤ 0.25
20,KHRP,≤ 0.25
21,QQGV,≤ 0.25
